# Out of some 420,000 compounds screened, about 64,000 (15%) were called active. This list was built around the results that the source calls inconclusive (neither active nor inactive); the mix of calls is not that of the screen. Calls follow the shape of the dose curve; as a rule, active = well fitted inhibition curve with a large enough effect; inconclusive = small, poorly fitted or top-dose-only effect; inactive = flat fitted curve, though single readings scatter. Potencies of inconclusive entries are left out as doubtful fits.
# Test: qHTS for Inhibitors of human tyrosyl-DNA phosphodiesterase 1 (TDP1): qHTS in cells in absence of CPT; also: nearly all actives have a fitted effect of over 55% in size
# Conditions: DT40 Tdp1-/- hTDP1 cells, no CPT, ATP luminescence, 48 h; activity change, negative = growth inhibition: at 46.2 µM (top of the series) unless noted
# Procedure, shortened: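 Compound effects on proliferation are scored in DT40 Tdp1-/-;hTDP1 cells in the absence of CPT. ATP levels (CellTiter-Glo luminescence) are recorded after a ≥48 hr, 37 °C incubation.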
# % is scaled to controls: 0 for no effect and ±100 for the full control effect; potency is read from the fitted curve at half-maximal effect; tags tell the direction and shape of the fitted curve.
Compound,Potency,"activity change, negative = growth inhibition"
Cc1ccccc1S(=O)(=O)Cc1ccc(C(=O)NC2CCCCCC2)o1,"inconclusive [inhibitor, single point]",
Cc1cccc(NC(=O)Cn2c(=O)oc3cc(S(=O)(=O)NCc4ccccc4)ccc32)c1,"inconclusive [inhibitor, partial curve, poor fit]",
COc1ccc(OC)c(S(=O)(=O)Nc2c(NC3CCCCC3)c3ccccc3oc2=O)c1,"inconclusive [inhibitor, single point]",
COc1ccc(Br)cc1C1CC(=O)Nc2c1c(C)nn2-c1nc(C)cc(C)n1 (centres undefined),active: 18.4 µM,
Cc1ccc2nc(N(Cc3cccnc3)C(=O)C3CCCCC3)sc2c1,"inconclusive [inhibitor, partial curve]",
C#CCOCCOCCOCCNc1nc(N2CCN(C(=O)Cn3cc(CC(C)O)nn3)CC2)nc(N2CCN(C(=O)[C@H](C)n3cc(CCCN=C(N)N)nn3)CC2)n1 (some centres undefined),,inactive: -6.8%
O=C(O)c1ccc(-c2ncc[nH]2)cc1,"inconclusive [inhibitor, single point]",
Cc1nc(C(=O)N2CCCC(C(=O)c3ccc(Cl)cc3)C2)cs1 (centres undefined),"inconclusive [inhibitor, partial curve]",
O=C(OCc1ccc(Br)cc1)c1cccc(S(=O)(=O)N2CCCC2)c1,,inactive: -18.2%
CC(C)OC(=O)c1cc2c(ccn2C)n1CC(=O)N1CCC(Cc2ccccc2)CC1,active: 20.6 µM,
CC1Nc2nc(N(C)C)[nH]c(=O)c2NC1C (centres undefined),"inconclusive [inhibitor, single point]",
CCCOc1ccc(-c2c(C(=O)N/N=C/c3ccccc3OCC)nnn2-c2nonc2N)cc1,"inconclusive [inhibitor, single point]",
Cc1ccc(CN2CC(C(=O)N3CCN(S(=O)(=O)c4cc(C)ccc4C)CC3)CC2=O)cc1 (centres undefined),"inconclusive [inhibitor, partial curve]",
O=C(c1ccc(Oc2ccc([N+](=O)[O-])cc2)cc1)N1CCCCCC1,"inconclusive [inhibitor, single point]",
O=C(Nc1nc(-c2ccc(S(=O)(=O)N3CCOCC3)cc2)cs1)c1ccccc1,active: 11.6 µM,
CCc1ccc2nc(N3CCC(C(=O)O)CC3)sc2c1,,inactive: -19.3%
O=C(NC(=S)N1CCN(c2nc(-c3ccccc3)cs2)CC1)c1cncc(Br)c1,"inconclusive [inhibitor, single point]",
Cc1c(Oc2ccc(C(F)(F)F)cc2[N+](=O)[O-])ccc2c3c(c(=O)oc12)CCC3,"inconclusive [inhibitor, partial curve]",
CCOc1ccccc1CNCc1ccc(F)cc1,"inconclusive [inhibitor, single point]",
O=[N+]([O-])c1ccccc1-c1cc(-c2cc(Cl)ccc2O)n[nH]1,"inconclusive [inhibitor, single point]",
CCCCN(CCCC)S(=O)(=O)c1ccc(OC)c2ncccc12,"inconclusive [inhibitor, single point]",
CC(=O)N1CCN(c2nc3cc(C)ccc3cc2CN(C(=O)c2cccc3ccccc23)C2CC2)CC1,"inconclusive [inhibitor, single point]",

Compound,Potency,"activity change, negative = growth inhibition"
O=C1C(Cc2ccccc2)C(c2ccccc2)N1c1ccccc1 (centres undefined),"inconclusive [inhibitor, single point]",
Cc1c(Cl)cccc1-n1c(CCC(=O)O)ccc1-c1cccs1,"inconclusive [inhibitor, single point]",
CCC(C(=O)N1CCN(c2cc(Cl)ccc2C)CC1)n1nc(C)n2c(cc3occc32)c1=O (centres undefined),active: 14.6 µM,
CCSc1nc2n(n1)C(c1ccc(CC)cc1)C(C(=O)Nc1ccccc1OC)=C(C)N2 (centres undefined),active: 23.1 µM,
COc1ccc(-c2csc(NC(C)c3nc4cc(Cl)c(N5CCCCC5)cc4n3CCOCCO)n2)cc1 (centres undefined),"inconclusive [inhibitor, single point]",
CC(=O)c1ccc(-c2c(C)cc3oc(=O)cc(-c4ccccc4)c3c2C)cc1,active: 23.1 µM,
CN(C)S(=O)(=O)c1cccc(NC(=O)COc2ccc3ccccc3c2)c1,"inconclusive [inhibitor, partial curve]",
COc1ccc(Br)cc1CNC(=O)C(C)n1nc(C)n2c(cc3occc32)c1=O (centres undefined),"inconclusive [inhibitor, single point]",
N/C(=N\S(=O)(=O)c1cc(C(F)(F)F)cc(C(F)(F)F)c1)c1cccs1,"inconclusive [inhibitor, single point]",
CSCCC(NC(N)=O)C(=O)Nc1ccc(F)c(Cl)c1 (centres undefined),,inactive: -9.63%
Fc1ccccc1-n1c(-c2ccc3ccccc3n2)n[nH]c1=S,"inconclusive [inhibitor, partial curve, poor fit]",
Cc1ccc(OC(C)C(=O)Nc2ccc3c(c2)n(C)c(=O)n3C)c(C)c1 (centres undefined),"inconclusive [inhibitor, single point]",
O=C(c1ccco1)N1CCN(C(=S)NCc2ccc(F)cc2)CC1,"inconclusive [inhibitor, single point]",
COc1ccc(OC)c(-c2csc(NC(=O)C3=NN(c4ccccc4)C(=O)CC3)n2)c1,active: 20.6 µM,
CCN(CC)c1cc(C)nc2nc(-c3ccc(C)cc3)nn12,"inconclusive [inhibitor, single point]",
CN1OC[C@@H]2CN(S(=O)(=O)c3cccc(C(F)(F)F)c3)[C@H](c3ccc(-c4cc5ccccc5o4)cc3)C[C@@H]21,"inconclusive [inhibitor, partial curve, poor fit]",
COc1ccc(-n2nnnc2C(CCSC)N2CCN(C/C=C/c3ccccc3)CC2)cc1 (centres undefined),"inconclusive [inhibitor, single point]",
COC(=O)[C@]12CCCCC=C1N(Cc1ccccc1)C(=O)[C@H](CC(=O)NCCc1ccccc1OC)C2,"inconclusive [inhibitor, single point]",
Cc1ccc(C)c(S(=O)(=O)N(C(=O)c2ccncc2)c2ccc(OC(=O)c3ccncc3)cc2)c1,"inconclusive [inhibitor, single point]",
CC(C)(C)c1ccc(COC(=O)CNC(=O)CNC(=O)Cc2ccccc2)cc1,,inactive: -8.43%
CCOc1ccc(S(=O)(=O)N2CCN(C3CC(=O)N(c4cccc(C(C)=O)c4)C3=O)CC2)cc1 (centres undefined),,inactive: -17.5%
CCCN1CCn2c3c(c4cc(Br)ccc42)CCCC31 (centres undefined),"inconclusive [inhibitor, single point]",

Compound,Potency,"activity change, negative = growth inhibition"
CN1CCCN=C1/C=C/c1cccs1,inactive,
Cc1ccc(OCCNC(=O)c2cccc(S(=O)(=O)N3CCN(C)CC3)c2)cc1,"inconclusive [inhibitor, partial curve]",
Cc1cccc(CN2CCN(Cc3cccc(-n4cccn4)c3)CC2CCO)n1 (centres undefined),"inconclusive [inhibitor, full curve, poor fit]",
O=C1CCCN1CCCNc1nc(NCc2ccccc2)nc2ccsc12,active: 18.4 µM,
Cc1cccc(CN2C(=O)N/C(=C/c3cc(C)n(-c4ccccn4)c3C)C2=O)c1,"inconclusive [inhibitor, partial curve]",
CCCCNC(=O)CO/N=C(\C)c1cc2ccccc2o1,"inconclusive [inhibitor, single point]",
COc1ccc(N2CCN(C(=O)c3cc4c(=O)n(Cc5ccccc5)ccc4nc3C)CC2)cc1,"inconclusive [inhibitor, single point]",
CC(C)(C)C(=O)Nc1ccnn1C1CCN(C(=O)c2cccc(Cl)c2)CC1,"inconclusive [inhibitor, partial curve]",
COc1ccc(S(=O)(=O)Nc2cccc(-n3cnnn3)c2)cc1,"inconclusive [inhibitor, single point]",
Cc1ccc(CN2CCSc3ccc(C(=O)Nc4ccc(F)cc4F)cc32)cc1,"inconclusive [inhibitor, single point]",
N#Cc1ccc(Oc2cc(C(F)(F)F)nc(-c3ccccn3)n2)cc1,"inconclusive [inhibitor, single point]",
CCNC(=O)C(C)NC(=O)C1=NN(c2ccccc2)C(=O)CC1 (centres undefined),"inconclusive [inhibitor, single point]",
CNC(=O)c1sc(NCc2ccccc2OC)nc1C,,inactive: -16.5%
O=C(NC1CCCCC1)C(c1ccncc1)N(Cc1ccc2c(c1)OCO2)C(=O)C(F)(F)F (centres undefined),"inconclusive [inhibitor, single point]",
CCCCCCn1nc(C(=O)Nc2nc3c(s2)CCCC3)c2ccccc2c1=O,"inconclusive [inhibitor, single point]",
COc1ccc(-c2nnc3ccc(SCC(=O)N4CCCCCC4)nn23)cc1OC,,inconclusive: -34.4% [inhibitor]
CCOC(=O)N1CCN(C(=O)CNC(=O)C23CC4CC(CC(C4)C2)C3)CC1,,inactive: -0.424%
Cc1cc(C)n(CC(=O)N2c3ccccc3Sc3ccccc32)n1,"inconclusive [inhibitor, single point]",
Cc1ccc2nc(SCC(=O)NCC3Cc4cc(-c5ncccc5C)ccc4O3)[nH]c2c1 (centres undefined),"inconclusive [inhibitor, single point]",
COc1ccc(OCCN2CCC(C(=O)NC(c3ccc(Cl)cc3)c3cnccn3)CC2)cc1 (centres undefined),"inconclusive [inhibitor, single point]",
